Cytotoxicity call and growth inhibition call data for 29 compounds are collected here from the antibiotic and cytotoxicity screens of Wong et al. (2023).

For one assay, the system named is HSkMC. The assay is described as follows: cytotoxicity call (relative viability < 0.9). Particulars: 10 µM.
For a further assay, the system named is S. aureus RN4220. The assay is described as follows: growth inhibition call (relative growth <= 0.2). As to conditions: 50 µM.

Structures are written as SMILES. Some of the results follow.

Take `Cn1cnc(S(=O)(=O)N2C[C@@H](O)COC[C@H]3O[C@H](CC(=O)NCc4ccc(F)cc4)CC[C@@H]32)c1`: the cytotoxicity call in the assay with HSkMC is “inactive”. For the same compound, the growth inhibition call in the assay on S. aureus RN4220 is “inactive”.
On to `CC(=O)O[C@@H]1[C@H](OC(C)=O)N(C)C(=O)N1C`, for which, in the assay on HSkMC, the cytotoxicity call is “inactive”. Also, in the assay on S. aureus RN4220, the growth inhibition call was “inactive”.
Regarding `O=C(C[C@H]1CC=CC[C@H](Cc2ccc(F)cc2)C(=O)OC[C@@H](Cc2c[nH]c3ccccc23)NC1=O)NCCO`, the cytotoxicity call in the assay with HSkMC was “inactive”. Besides, in the assay with S. aureus RN4220, the growth inhibition call is “inactive”.
Take `COc1ccc(CN(C)C[C@H]2OCCCC[C@@H](C)Oc3ccc(NS(=O)(=O)c4ccc(F)cc4)cc3C(=O)N([C@H](C)CO)C[C@@H]2C)cc1`: the cytotoxicity call in the assay on HSkMC is “inactive”. For the same compound, the growth inhibition call in the assay on S. aureus RN4220 is “inactive”.
In the case of `C[C@@H]1CN([C@@H](C)CO)C(=O)c2cc(NC(=O)c3ccccc3)ccc2O[C@@H](C)CCCCO[C@H]1CN(C)C(=O)Cc1ccccc1`, the cytotoxicity call with HSkMC was “inactive”. In the assay on S. aureus RN4220, the growth inhibition call is “inactive”.
`COc1cccc(S(=O)(=O)Nc2ccc3c(c2)[C@@H]2C[C@@H](CC(=O)NCC(F)(F)F)O[C@@H](CO)[C@@H]2O3)c1`: the cytotoxicity call with HSkMC was “inactive”. Moreover, the growth inhibition call with S. aureus RN4220 was “inactive”.
As to `Cc1noc(C)c1S(=O)(=O)Nc1ccc2c(c1)CC(=O)N([C@H](C)CO)C[C@H](C)[C@H](CN(C)Cc1ccncc1)O2`, the cytotoxicity call with HSkMC was “inactive”. In the assay on S. aureus RN4220, the growth inhibition call is “inactive”.
As to `CC(=O)Nc1ncc(CN2CCOCC2)s1`, the cytotoxicity call in the assay with HSkMC was “inactive”. For the same compound, the growth inhibition call in the assay on S. aureus RN4220 was “inactive”.
Consider `Cc1ccc(S(=O)(=O)Nc2ccc3c(c2)C(=O)N([C@H](C)CO)C[C@H](C)[C@@H](CN(C)CC2CCCCC2)OCCCC[C@H](C)O3)cc1`, for which the cytotoxicity call with HSkMC is “inactive”. In the assay with S. aureus RN4220, the growth inhibition call was “inactive”.
For the compound `C[C@@H]1CN([C@H](C)CO)C(=O)c2cc(NC(=O)NC3CCCCC3)ccc2O[C@@H](C)CCCCO[C@@H]1CN(C)Cc1ccc(Cl)c(Cl)c1`, in the assay on HSkMC, the cytotoxicity call is “inactive”. For the same compound, the growth inhibition call with S. aureus RN4220 was “inactive”.
With `C[C@H](CO)N1C[C@H](C)[C@H](CN(C)C(=O)Nc2ccc3c(c2)OCO3)Oc2ccc(NC(=O)Nc3cccc4ccccc34)cc2C1=O`, the cytotoxicity call in the assay on HSkMC was “inactive”. Also, the growth inhibition call in the assay on S. aureus RN4220 is “inactive”.
In the case of `Cc1noc(C)c1NC(=O)Nc1ccc2c(c1)C(=O)N([C@H](C)CO)C[C@H](C)[C@@H](CN(C)C(=O)Nc1c(C)noc1C)OCCCC[C@H](C)O2`, in the assay with HSkMC, the cytotoxicity call was “inactive”. The growth inhibition call in the assay on S. aureus RN4220 is “inactive”.
In the case of `C[C@@H]1CCCCO[C@H](CN(C)CC2CCCCC2)[C@H](C)CN([C@@H](C)CO)C(=O)c2cc(NS(=O)(=O)c3ccc(F)cc3)ccc2O1`, the cytotoxicity call with HSkMC was “inactive”. The growth inhibition call in the assay with S. aureus RN4220 was “inactive”.
For `O=C(C[C@@H]1CC[C@H]2[C@@H](COC[C@@H](O)CN2C(=O)Nc2ccc(Cl)cc2)O1)NC1Cc2ccccc2C1`, the cytotoxicity call with HSkMC is “inactive”. Besides, the growth inhibition call with S. aureus RN4220 is “inactive”.
Consider `Cc1noc(C)c1NC(=O)N(C)C[C@H]1Oc2ccc(NC(=O)Nc3cccc4ccccc34)cc2C(=O)N([C@H](C)CO)C[C@@H]1C`, for which the cytotoxicity call in the assay on HSkMC is “inactive”. Further, the growth inhibition call in the assay on S. aureus RN4220 is “inactive”.
On to `CO[C@H]1CN(C)C(=O)c2cc(NC(=O)C3CC3)ccc2OC[C@H](C)N(C(=O)CN2CCOCC2)C[C@H]1C`, for which, in the assay on HSkMC, the cytotoxicity call is “inactive”. Moreover, the growth inhibition call with S. aureus RN4220 is “inactive”.
On to `O=C(O)c1ccc(N[C@@H]2O[C@H](CO)[C@@H](O)[C@@H]2O)cc1`, for which the cytotoxicity call in the assay with HSkMC is “inactive”. Also, the growth inhibition call in the assay on S. aureus RN4220 was “inactive”.
For `CN(CC(=O)Nc1cccc(S(=O)(=O)N2CCOCC2)c1)CC(=O)Nc1ccc(Cl)c(C(F)(F)F)c1`, the cytotoxicity call in the assay with HSkMC was “inactive”. For the same compound, the growth inhibition call in the assay on S. aureus RN4220 was “inactive”.
With `O=C(C[C@@H]1C[C@H]2c3cc(NS(=O)(=O)c4ccc(F)cc4)ccc3O[C@H]2[C@H](CO)O1)NCc1ccccc1F`, the cytotoxicity call with HSkMC is “inactive”. The growth inhibition call in the assay on S. aureus RN4220 was “inactive”.
On to `COc1ccc(NC(=O)Nc2ccc3c(c2)C(=O)N([C@@H](C)CO)C[C@@H](C)[C@@H](CN(C)C(=O)Cc2ccccc2)OCCCC[C@H](C)O3)cc1`, for which the cytotoxicity call in the assay on HSkMC was “inactive”. Further, in the assay with S. aureus RN4220, the growth inhibition call was “inactive”.
With `O=C(C[C@@H]1CC[C@H]2[C@@H](COC[C@H](O)CN2C(=O)c2ccc3c(c2)OCO3)O1)NCCN1CCCCC1`, in the assay with HSkMC, the cytotoxicity call was “inactive”. In the assay with S. aureus RN4220, the growth inhibition call is “inactive”.
For the compound `COc1ccccc1CN1C(=O)c2ccccc2[C@](Cc2ccccc2I)(C(=O)O)[C@@H]1c1ccc(CO)cc1`, the cytotoxicity call in the assay on HSkMC (human skeletal muscle cells) is “inactive”. Moreover, the growth inhibition call with S. aureus RN4220 is “inactive”.
For `C[C@H](CO)N1C[C@H](C)[C@H](CN(C)S(=O)(=O)c2cccs2)Oc2ccc(NC(=O)Cn3cnnn3)cc2C1=O`, the cytotoxicity call in the assay with HSkMC is “inactive”. Also, the growth inhibition call in the assay on S. aureus RN4220 was “inactive”.
As to `CCCNC(=O)N[C@@H]1CC[C@@H](CC(=O)N2CCN(C)CC2)O[C@@H]1CO`, the cytotoxicity call with HSkMC is “inactive”. For the same compound, the growth inhibition call with S. aureus RN4220 was “inactive”.
For the compound `O=C(C[C@@H]1CC[C@H]2[C@@H](COC[C@H](O)CN2C(=O)Nc2cccc(F)c2)O1)NCCCN1CCOCC1`, the cytotoxicity call in the assay with HSkMC is “inactive”. Further, the growth inhibition call with S. aureus RN4220 is “inactive”.
Turning to `C[C@@H]1CN([C@@H](C)CO)C(=O)Cc2cc(NC(=O)Nc3ccc(C(F)(F)F)cc3)ccc2O[C@H]1CN(C)C(=O)Nc1cccc2ccccc12`, the cytotoxicity call in the assay with HSkMC is “inactive”. Moreover, the growth inhibition call with S. aureus RN4220 is “inactive”.
For `C[C@@H]1CCCCO[C@H](CN(C)C(=O)Nc2ccc(C(F)(F)F)cc2)[C@@H](C)CN([C@H](C)CO)C(=O)c2cc(NS(=O)(=O)c3ccccc3)ccc2O1`, in the assay with HSkMC, the cytotoxicity call was “inactive”. Besides, the growth inhibition call in the assay on S. aureus RN4220 was “inactive”.
On to `Cc1ccc(S(=O)(=O)N(C)C[C@H]2Oc3ccc(NS(C)(=O)=O)cc3C(=O)N([C@H](C)CO)C[C@@H]2C)cc1`, for which, in the assay with HSkMC, the cytotoxicity call is “inactive”. Also, the growth inhibition call with S. aureus RN4220 is “inactive”.
Regarding `COc1ccc(NC(=O)Nc2ccc3c(c2)C(=O)N([C@@H](C)CO)C[C@@H](C)[C@@H](CN(C)S(=O)(=O)c2c(C)noc2C)OCCCC[C@@H](C)O3)cc1`, the cytotoxicity call with HSkMC was “inactive”. For the same compound, the growth inhibition call with S. aureus RN4220 was “inactive”.
